In the supplement of paper PMC10369915:
Some of the results follow. Cut-off read from the data, not from the text of the source: active = 3.2 or more and inactive = the rest. Most of these values are background signal.

Target: SHP2 C-SH2 domain E139D
Experiment: enrichment score (SH2-bound / input frequency) (ratio); bacterial display of known human phosphotyrosine sites (pTyr-Var adds point mutants) read by sequencing; higher = stronger binding; tyrosines were phosphorylated by kinases first
Conditions: peptide library: pTyr-Var
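Note: displayed peptides selected on beads carrying the immobilized SH2 domain, with library peptides lacking any tyrosine serving as negative controls.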

Binder | enrichment score
DRPASYLDKVR [KRT17_Y98_L95P] | inactive: 0.708
DRLASYLDKMR [KRT17_Y98_V102M] | inactive: 1.12
RDWSLYFKIIE [KRT18_Y129_H128L] | inactive: 0.69
DIRAQYDELAR [KRT18_Y256] | inactive: 0.568
DIRAQYDELAQ [KRT18_Y256_R261Q] | inactive: 0.595
SSSGGYGGGYG [KRT19_Y61_A60G] | inactive: 0.63
SSSGAYGGGFG [KRT19_Y61_YF] | inactive: 0.505
AFGGGYGGVLT [KRT19_Y65_YF] | inactive: 0.885
KIKGRYEKCEP [KRT26_Y119_W118R] | active: 4.48
LEGEEYRMSGE [KRT3_Y511] | inactive: 0.384
LEGKEYRMSGE [KRT3_Y511_E509K] | inactive: 0.769
EQLQSYQVEII [KRT33A_Y268_A270V] | inactive: 0.91
WFQTKYEELQI [KRT6B_Y360_YF] | inactive: 2.27
RMLRKYQELMS [KRT74_Y425_E424K] | inactive: 0.442
KAESWYQTKFE [KRT75_Y342_E337K_YF] | inactive: 0.841
EVRTQYEEIAQ [KRT76_Y361_A359T] | inactive: 0.809
GLGGGCGGASG [KRT8_Y54_Y54C] | inactive: 0.607
YGGLRCGYGVL [KRTAP20-2_Y13_Y13C] | inactive: 0.858
FGGLRCGFGVL [KRTAP20-2_Y13_Y13C_YF] | inactive: 0.85

Target: SHP2 C-SH2 domain wild-type
Experiment: as above
Conditions: peptide library: pTyr-Var

Binder | enrichment score
DRPASYLDKVR [KRT17_Y98_L95P] | inactive: 0.719
DRLASYLDKMR [KRT17_Y98_V102M] | inactive: 0.916
RDWSLYFKIIE [KRT18_Y129_H128L] | inactive: 0.98
DIRAQYDELAR [KRT18_Y256] | inactive: 0.65
DIRAQYDELAQ [KRT18_Y256_R261Q] | inactive: 0.681
SSSGGYGGGYG [KRT19_Y61_A60G] | inactive: 0.606
SSSGAYGGGFG [KRT19_Y61_YF] | inactive: 0.624
AFGGGYGGVLT [KRT19_Y65_YF] | inactive: 0.678
KIKGRYEKCEP [KRT26_Y119_W118R] | active: 3.96
LEGEEYRMSGE [KRT3_Y511] | inactive: 0.535
LEGKEYRMSGE [KRT3_Y511_E509K] | inactive: 0.532
EQLQSYQVEII [KRT33A_Y268_A270V] | inactive: 0.881
WFQTKYEELQI [KRT6B_Y360_YF] | inactive: 1.9
RMLRKYQELMS [KRT74_Y425_E424K] | inactive: 0.332
KAESWYQTKFE [KRT75_Y342_E337K_YF] | inactive: 0.675
EVRTQYEEIAQ [KRT76_Y361_A359T] | inactive: 0.866
GLGGGCGGASG [KRT8_Y54_Y54C] | inactive: 0.618
YGGLRCGYGVL [KRTAP20-2_Y13_Y13C] | inactive: 1.11
FGGLRCGFGVL [KRTAP20-2_Y13_Y13C_YF] | inactive: 1.2

Target: SHP2 N-SH2 domain L43F
Experiment: as above
Conditions: peptide library: pTyr-Var

Binder | enrichment score
DRPASYLDKVR [KRT17_Y98_L95P] | inactive: 0.617
DRLASYLDKMR [KRT17_Y98_V102M] | inactive: 0.961
RDWSLYFKIIE [KRT18_Y129_H128L] | inactive: 0.718
DIRAQYDELAR [KRT18_Y256] | inactive: 0.667
DIRAQYDELAQ [KRT18_Y256_R261Q] | inactive: 0.648
SSSGGYGGGYG [KRT19_Y61_A60G] | inactive: 0.634
SSSGAYGGGFG [KRT19_Y61_YF] | inactive: 0.549
AFGGGYGGVLT [KRT19_Y65_YF] | inactive: 0.783
KIKGRYEKCEP [KRT26_Y119_W118R] | active: 3.68
LEGEEYRMSGE [KRT3_Y511] | inactive: 0.493
LEGKEYRMSGE [KRT3_Y511_E509K] | inactive: 0.71
EQLQSYQVEII [KRT33A_Y268_A270V] | inactive: 0.848
WFQTKYEELQI [KRT6B_Y360_YF] | inactive: 3.2
RMLRKYQELMS [KRT74_Y425_E424K] | inactive: 0.233
KAESWYQTKFE [KRT75_Y342_E337K_YF] | inactive: 0.703
EVRTQYEEIAQ [KRT76_Y361_A359T] | inactive: 0.731
GLGGGCGGASG [KRT8_Y54_Y54C] | inactive: 0.42
YGGLRCGYGVL [KRTAP20-2_Y13_Y13C] | inactive: 0.95
FGGLRCGFGVL [KRTAP20-2_Y13_Y13C_YF] | inactive: 0.835

Target: SHP2 N-SH2 domain T42A
Experiment: as above
Conditions: peptide library: pTyr-Var

Binder | enrichment score
DRPASYLDKVR [KRT17_Y98_L95P] | inactive: 0.729
DRLASYLDKMR [KRT17_Y98_V102M] | inactive: 0.971
RDWSLYFKIIE [KRT18_Y129_H128L] | inactive: 0.415
DIRAQYDELAR [KRT18_Y256] | inactive: 0.583
DIRAQYDELAQ [KRT18_Y256_R261Q] | inactive: 0.532
SSSGGYGGGYG [KRT19_Y61_A60G] | inactive: 0.661
SSSGAYGGGFG [KRT19_Y61_YF] | inactive: 0.528
AFGGGYGGVLT [KRT19_Y65_YF] | inactive: 0.787
KIKGRYEKCEP [KRT26_Y119_W118R] | active: 3.34
LEGEEYRMSGE [KRT3_Y511] | inactive: 0.508
LEGKEYRMSGE [KRT3_Y511_E509K] | inactive: 0.59
EQLQSYQVEII [KRT33A_Y268_A270V] | inactive: 0.718
WFQTKYEELQI [KRT6B_Y360_YF] | active: 13.4
RMLRKYQELMS [KRT74_Y425_E424K] | inactive: 0.288
KAESWYQTKFE [KRT75_Y342_E337K_YF] | inactive: 0.706
EVRTQYEEIAQ [KRT76_Y361_A359T] | inactive: 1.7
GLGGGCGGASG [KRT8_Y54_Y54C] | inactive: 0.469
YGGLRCGYGVL [KRTAP20-2_Y13_Y13C] | inactive: 0.864
FGGLRCGFGVL [KRTAP20-2_Y13_Y13C_YF] | inactive: 0.728

Target: SHP2 N-SH2 domain T52S
Experiment: as above
Conditions: peptide library: pTyr-Var

Binder | enrichment score
DRPASYLDKVR [KRT17_Y98_L95P] | inactive: 0.838
DRLASYLDKMR [KRT17_Y98_V102M] | inactive: 0.993
RDWSLYFKIIE [KRT18_Y129_H128L] | inactive: 0.452
DIRAQYDELAR [KRT18_Y256] | inactive: 0.591
DIRAQYDELAQ [KRT18_Y256_R261Q] | inactive: 0.573
SSSGGYGGGYG [KRT19_Y61_A60G] | inactive: 0.578
SSSGAYGGGFG [KRT19_Y61_YF] | inactive: 0.51
AFGGGYGGVLT [KRT19_Y65_YF] | inactive: 0.761
KIKGRYEKCEP [KRT26_Y119_W118R] | active: 3.46
LEGEEYRMSGE [KRT3_Y511] | inactive: 0.415
LEGKEYRMSGE [KRT3_Y511_E509K] | inactive: 0.674
EQLQSYQVEII [KRT33A_Y268_A270V] | inactive: 0.689
WFQTKYEELQI [KRT6B_Y360_YF] | active: 4.03
RMLRKYQELMS [KRT74_Y425_E424K] | inactive: 0.363
KAESWYQTKFE [KRT75_Y342_E337K_YF] | inactive: 0.815
EVRTQYEEIAQ [KRT76_Y361_A359T] | inactive: 0.795
GLGGGCGGASG [KRT8_Y54_Y54C] | inactive: 0.542
YGGLRCGYGVL [KRTAP20-2_Y13_Y13C] | inactive: 0.923
FGGLRCGFGVL [KRTAP20-2_Y13_Y13C_YF] | inactive: 0.986

Target: SHP2 N-SH2 domain wild-type
Experiment: as above
Conditions: peptide library: pTyr-Var

Binder | enrichment score
DRPASYLDKVR [KRT17_Y98_L95P] | inactive: 0.676
DRLASYLDKMR [KRT17_Y98_V102M] | inactive: 1.12
RDWSLYFKIIE [KRT18_Y129_H128L] | inactive: 1.01
DIRAQYDELAR [KRT18_Y256] | inactive: 0.596
DIRAQYDELAQ [KRT18_Y256_R261Q] | inactive: 0.745
SSSGGYGGGYG [KRT19_Y61_A60G] | inactive: 0.666
SSSGAYGGGFG [KRT19_Y61_YF] | inactive: 0.707
AFGGGYGGVLT [KRT19_Y65_YF] | inactive: 0.807
KIKGRYEKCEP [KRT26_Y119_W118R] | inactive: 3.11
LEGEEYRMSGE [KRT3_Y511] | inactive: 0.572
LEGKEYRMSGE [KRT3_Y511_E509K] | inactive: 0.923
EQLQSYQVEII [KRT33A_Y268_A270V] | inactive: 0.862
WFQTKYEELQI [KRT6B_Y360_YF] | inactive: 1.5
RMLRKYQELMS [KRT74_Y425_E424K] | inactive: 0.442
KAESWYQTKFE [KRT75_Y342_E337K_YF] | inactive: 0.708
EVRTQYEEIAQ [KRT76_Y361_A359T] | inactive: 0.869
GLGGGCGGASG [KRT8_Y54_Y54C] | inactive: 0.547
YGGLRCGYGVL [KRTAP20-2_Y13_Y13C] | inactive: 0.946
FGGLRCGFGVL [KRTAP20-2_Y13_Y13C_YF] | inactive: 1.31
